Hit rate of the full screen: of about 150,000 compounds, about 540 (0.36%) showed an effect of 50% or more. This is one part of the list.
tested on: Plasmodium falciparum; assay: Primary screen in NF54 nanoGlo assay, in single point, at 2uM, 72h; a lower Z score goes with more inhibition; assay type: functional, Erythrocyte; conditions: timepoint 72 hour

Compound | % Inhibition | Z score
O=C1c2ccccc2C(=O)N1CCC(=O)n1cnc2ccccc21 | 33% | -3.73
N#Cc1nc(CCC2CCCCC2)oc1NCc1ccccc1 | -6% | 0.7
Cc1onc(NC(=O)N2C[C@@H]3OC(=O)N(C4CCN(C(C)C)CC4)[C@@H]3C2)c1C | -6% | 1.07
CCc1nncn1CCNC(=O)c1c(F)c(F)cc(F)c1F | -3% | 0.63
Cc1cccc(C)c1NCC(=O)NC[C@H](O)c1ccc(F)cc1 | 6% | -1.11
C[C@]1(c2cccc3ccccc23)NC(=O)NC1=O | 0% | -0.02
Cc1cc(C)c2c(-n3c(C)ccc3C)nn(CC(=O)NCc3ccc4c(c3)OCO4)c2n1 | -14% | 1.37
CC(C)[C@H](CO)CNc1ccc2cc(Cl)ccc2n1 | -1% | 0.09
Cc1cncc(=O)n1C[C@H](O)COC(C)C | -7% | 0.84
CCCN1C(=O)CC[C@@H]2CN(C(=O)c3cccc4ccccc34)CC[C@@H]21 | 9% | -1.54
O=C(NCc1cc2n(n1)CCCN(Cc1cccc(Cl)c1F)C2)C1CCC1 | -12% | 2.22
CC[C@@H](Cn1ccnc1)NS(=O)(=O)N1CCOCC1 | -9% | 1.65
CCN(C(C)=O)c1nc(CN2CCc3sccc3C2)cs1 | -13% | 1.81
CCCC(C(=O)NCC1CCCN1CC)c1ccccn1 (stereo not drawn) | -9% | 1.17
CC(C)c1ccc(C2c3[nH]c4ccccc4c3C[C@H]3C(=O)N(c4ccccc4C(=O)N[C@H](C)C(=O)O)C(=O)N23)cc1 (stereo partly drawn) | -6% | 1.01
CCCOc1cc(C)ccc1CN[C@H]1CCCS(=O)(=O)C1 | 11% | -2.03
CCCNC(=O)C1CCN(C(=O)c2cccc3[nH]ncc23)CC1 | -1% | 0.23
c1ccc2c(c1)OCCN2Cc1cccc2cccnc12 | -5% | 0.43
C[C@H](Oc1ccccc1)C(=O)N1CCC(CCC(=O)Nc2ccccc2)CC1 | -13% | 1.83
Cn1c(C2CC2)nc2cc(CNc3ccc(C#N)cn3)ccc21 | -6% | 1.2
Cc1ccc(Cl)cc1NC(=O)Cn1nc2c(Oc3ccccc3C)nccn2c1=O | -11% | 1.07
C=CCCC(=O)N(C1CCCCC1)[C@H]1CCS(=O)(=O)C1 | -15% | 2.03
O=C(c1ccco1)N1CCOC2CCCCC21 (stereo not drawn) | 5% | -0.62
CCCN(C[C@H]1CCCCO1)C(=O)Nc1ccc(C)cn1 | -7% | 1.02

Source: ChEMBL document CHEMBL4888484, “Replenishing the malaria drug discovery pipeline: Screening and hit evaluation of the MMV Hit Generation Library 1 (HGL1) against asexual blood stage Plasmodium falciparum ,using a nano luciferase reporter read-out” (2022)
